From the antibiotic and cytotoxicity screens of Wong et al. (2023)
Some of the results follow.

The compounds below were run on HepG2 (assay: cytotoxicity call (relative viability < 0.9)). Conditions: 10 µM.
With `O=C(C[C@@H]1C[C@H]2c3cc(NC(=O)Nc4ccc(C(F)(F)F)cc4)ccc3O[C@H]2[C@H](CO)O1)NCc1ccc(Cl)cc1` the cytotoxicity call was “inactive”.
For `Cc1noc(C)c1S(=O)(=O)Nc1ccc2c(c1)C(=O)N([C@@H](C)CO)C[C@@H](C)[C@H](CN(C)Cc1ccc(-c3ccccc3)cc1)O2`, the cytotoxicity call was “inactive”.
For `C[C@@H]1CN([C@@H](C)CO)C(=O)Cc2cc(NC(=O)Cc3ccccc3)ccc2O[C@@H]1CN(C)Cc1ccc(Oc2ccccc2)cc1`, the cytotoxicity call was “active”.
`COc1ccc(S(=O)(=O)N(C)C[C@H]2Oc3ccc(NC(=O)c4ccncc4)cc3C(=O)N([C@H](C)CO)C[C@H]2C)cc1` was tested, and the cytotoxicity call was “inactive”.
With `Cc1cc(=O)nc(-n2ncc(C#N)c2N)[nH]1` the cytotoxicity call was “inactive”.
`OCc1ccc2c(c1)OCCO2` was tested, and the cytotoxicity call was “inactive”.
In the case of `O=C(C[C@H]1CC[C@H]2[C@@H](COC[C@H](O)CN2C(=O)Nc2ccc(C(F)(F)F)cc2)O1)NCc1ccncn1`, the cytotoxicity call is reported as “inactive”.
In the case of `NC1(C(=O)O)CC(C(=O)O)C1` (stereo not given), the cytotoxicity call is reported as “inactive”.
`C[C@@H]1CCCCO[C@H](CN(C)C(=O)NC2CCCCC2)[C@@H](C)CN([C@H](C)CO)C(=O)c2cc(NS(=O)(=O)c3cccs3)ccc2O1` was tested, and the cytotoxicity call was “inactive”.
With `COc1ccc(NC(=O)N(C)C[C@@H]2OCCCC[C@@H](C)Oc3ccc(NC(=O)Nc4ccc(F)cc4)cc3C(=O)N([C@H](C)CO)C[C@@H]2C)cc1` the cytotoxicity call was “inactive”.
